The other results are listed elsewhere or left out. These are further read-outs of the screen, such as a control signal, another cell line or another target. No call is given for them.

These results are taken from PubChem BioAssay AID1956 (SRMLSC, 2009).

The experiment in a line: compounds boosting herpes simplex virus growth – fold increase, host cell viability (AID 1956). Note: tested in PC3 cells. The settings on record: HSV replication augmentation in cells; fold increase: measured here: primary screen fold increase 10 uM, at 10 µM, stronger effect = higher value; viability: measured here: host cell viability series, at 25 µM, stronger effect = lower value.
As usually defined, the viability is a read-out of living cells in per cent, often relative to untreated cells. In the case of `COc1ccc(C(=O)/C=C2/Sc3cc4c(cc3N2C)OCO4)cc1`, the fold increase worked out at 1.34 and the viability was 91.5%.
Taken in the same sequence, the figures for `CN1CCc2c(sc(NC(=O)c3ccc(S(=O)(=O)N4CCc5ccccc54)cc3)c2C(N)=O)C1` were 1.38 and 94%.
The like results for `CCCCCCCCC(=O)N/N=C/c1cccc(Br)c1` were, in that order, 1.47 and 94.2%.
The like results for `N#Cc1ccc(-c2ccco2)nc1SCC(=O)c1ccc(Cl)cc1` were, in that order, 1.57 and 90%.
For `COc1cc(OC)c(-c2nn3c(-c4ccco4)nnc3s2)cc1OC`, the fold increase is 1.32.
In the case of `CCOC(=O)c1c(NC(=S)Nc2cccc(C)c2)sc2c1CC(C)(C)SC2`, the fold increase came out at 1.5 and the viability was found to be 103%.
For `COc1ccc(C(=O)Nn2c(SCC(=O)NCc3ccccc3)nc3ccccc3c2=O)cc1`, the fold increase came to 1.47 and the viability was determined as 102%.
Consider `O=C(N/C(=C/c1ccco1)C(=O)N1CCc2ccccc21)c1ccco1`, for which the fold increase is 1.37 and the viability worked out at 102%.
With `O=c1c2ccccc2c(C=Nc2ccccc2O)c(O)n1-c1nccs1`, the fold increase worked out at 1.37 and the viability is 101%.
`Cn1cc(/C=C2\SC(=S)N(NC(=O)c3cccc(Cl)c3)C2=O)c2ccccc21` displayed a fold increase of 1.62.
Take `COC(=O)C1=C(C(=O)OC)C(c2cc(Cl)ccc2O)c2sc(=O)[nH]c2S1` (stereo unspecified): the fold increase was determined as 1.43 and the viability stood at 98.6%.
`Nc1ccc2nc3c(=O)n(C4CCCCC4)c(=O)[nH]c3nc2c1` came in with a fold increase of 17.6.
In the case of `COc1ccc2ccccc2c1C(O)c1nccn1C` (stereo unspecified), the fold increase was 2.98 and the viability stood at 90.7%.
As for `CC(C)c1ccc(C2C3CSCC=C3C(C#N)=C(N)C2(C#N)C#N)cc1` (stereo unspecified), the fold increase came to 1.47 and the viability was determined as 81.5%.
With `CCCN1CCN(CCCNC(=O)c2cc3c(=O)n(C)c4ccccc4c3n2C)CC1`, the fold increase was 1.48 and the viability came out at 83.2%.
Taken in the same sequence, the figures for `COc1ccc(C2OC34CCCCC3C(C#N)(C#N)C2(C#N)C(=N)O4)cc1` (stereo unspecified) were 1.33 and 102%.
On to `C/C(=N\NC(=S)NCc1ccccc1)c1ccco1`, for which the fold increase was determined as 1.32.
For `COc1ccc(OC)c(NC(=S)NCCC(c2ccccc2)c2ccccc2)c1`, the fold increase came to 1.38.
On to `Cc1ccc(Cn2c(/C=C/c3ccco3)nc3ccccc32)cc1`, for which the fold increase amounted to 1.45 and the viability amounted to 72.9%.
As for `CC(=Nc1ccccc1)c1sc2ccccc2c1O`, the fold increase came out at 1.75 and the viability amounted to 94.4%.
Taken in the same sequence, the figures for `O=C1c2ccccc2-c2cccc(NS(=O)(=O)c3ccc(C(F)(F)F)cc3)c21` were 1.79 and 103%.
Turning to `CC(=O)Cc1cc(O)c2ccccc2c1OC(=O)c1ccccc1`, the fold increase is 1.59 and the viability is 73%.
For `Cc1nc2cc(NC(=O)CSc3nc4c(C)cccc4cc3C#N)ccc2s1`, the fold increase was 2.33 and the viability was 70%.
On to `CC(C)=CCN1CCN(Cc2cnc(N3CCOCC3)s2)CC1CCO` (stereo unspecified), for which the fold increase came to 1.46 and the viability came to 102%.
Take `CCCNC(=O)Cn1c(=O)/c(=C\c2ccc(-c3ccc([N+](=O)[O-])cc3)o2)s/c1=C\C(=O)C(C)(C)C`: the fold increase came to 6.98 and the viability is 83.3%.
As to `CN(C)c1ccc(/C=C/C(=O)c2cc(Cl)ccc2O)cc1`, the fold increase was found to be 2.47.
